Measured values from the supplement of paper PMC8728848.
This is one part of the list.

What was measured:
Experiment in all cases: glycan array binding signal (z-score within array); higher = stronger binding
Settings in all cases: glycan notation: IUPAC condensed, linker removed
[1] = target: Fuc(a1-2)Gal
Outline: (§1)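 Glycan array data came from 3228 arrays in the Consortium for Functional Glycomics database, and only arrays with an available protein sequence were kept. Glycan names were put into IUPAC-condensed notation, and columns mapping to the same glycan were averaged. The binding signal is a within-array Z-score, averaged across arrays of one protein sequence run at different concentrations or buffers and across linkers. A negative Z-score can be read as non-binding.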

[2] = target: Fuc(a1-2)Gal(b1-3)GalNAc
Outline: as §1

[3] = target: Fuc(a1-2)Gal(b1-3)GalNAc(b1-3)Gal
Outline: as §1

[4] = target: Fuc(a1-2)Gal(b1-3)GalNAc(b1-3)Gal(a1-4)Gal(b1-4)Glc
Outline: as §1

[5] = target: Fuc(a1-2)Gal(b1-3)GalNAc(b1-4)[Neu5Ac(a2-3)]Gal(b1-4)Glc
Outline: as §1

[6] = target: Fuc(a1-2)Gal(b1-3)GlcNAc
Outline: as §1

[7] = target: Fuc(a1-2)Gal(b1-3)GlcNAc(b1-2)Man(a1-3)[Fuc(a1-2)Gal(b1-3)GlcNAc(b1-2)Man(a1-6)]Man(b1-4)GlcNAc(b1-4)GlcNAc
Outline: as §1

[8] = target: Fuc(a1-2)Gal(b1-3)GlcNAc(b1-3)Gal(b1-4)Glc
Outline: as §1

[9] = target: Fuc(a1-2)Gal(b1-3)GlcNAc(b1-3)[Gal(b1-4)[Fuc(a1-3)]GlcNAc(b1-6)]Gal(b1-4)Glc
Outline: as §1

[10] = target: Fuc(a1-2)Gal(b1-3)[Fuc(a1-4)]GlcNAc
Outline: as §1

[11] = target: Fuc(a1-2)Gal(b1-3)[Fuc(a1-4)]GlcNAc(b1-2)Man(a1-3)[Fuc(a1-2)Gal(b1-3)[Fuc(a1-4)]GlcNAc(b1-2)Man(a1-6)]Man(b1-4)GlcNAc(b1-4)GlcNAc
Outline: as §1

[12] = target: Fuc(a1-2)Gal(b1-4)Glc
Outline: as §1

[13] = target: Fuc(a1-2)Gal(b1-4)Glc6S
Outline: as §1

[14] = target: Fuc(a1-2)Gal(b1-4)GlcNAc
Outline: as §1

[15] = target: Fuc(a1-2)Gal(b1-4)GlcNAc(b1-2)Man(a1-3)[Fuc(a1-2)Gal(b1-4)GlcNAc(b1-2)Man(a1-6)]Man(b1-4)GlcNAc(b1-4)GlcNAc
Outline: as §1

[16] = target: Fuc(a1-2)Gal(b1-4)GlcNAc(b1-3)Gal(b1-4)GlcNAc
Outline: as §1

[17] = target: Fuc(a1-2)Gal(b1-4)GlcNAc(b1-3)Gal(b1-4)GlcNAc(b1-3)Gal(b1-4)GlcNAc
Outline: as §1

[18] = target: Fuc(a1-2)Gal(b1-4)GlcNAc6S
Outline: as §1

[19] = target: Fuc(a1-2)Gal(b1-4)[Fuc(a1-3)]GlcNAc
Outline: as §1

[20] = target: Fuc(a1-2)Gal(b1-4)[Fuc(a1-3)]GlcNAc(b1-2)Man(a1-3)[Fuc(a1-2)Gal(b1-4)[Fuc(a1-3)]GlcNAc(b1-2)Man(a1-6)]Man(b1-4)GlcNAc(b1-4)GlcNAc
Outline: as §1

[21] = target: Fuc(a1-2)Gal(b1-4)[Fuc(a1-3)]GlcNAc(b1-3)Gal(b1-4)[Fuc(a1-3)]GlcNAc
Outline: as §1

[22] = target: Fuc(a1-2)Gal(b1-4)[Fuc(a1-3)]GlcNAc(b1-3)Gal(b1-4)[Fuc(a1-3)]GlcNAc(b1-3)Gal(b1-4)[Fuc(a1-3)]GlcNAc
Outline: as §1

[23] = target: Fuc(a1-2)Gal6S(b1-4)Glc
Outline: as §1

[24] = target: Fuc(a1-2)Gal6S(b1-4)Glc6S
Outline: as §1

[25] = target: Fuc(a1-2)Gal6S(b1-4)GlcNAc
Outline: as §1

[26] = target: Fuc(a1-2)[Gal(a1-3)]Gal
Outline: as §1

[27] = target: Fuc(a1-2)[Gal(a1-3)]Gal(b1-3)GlcNAc
Outline: as §1

[28] = target: Fuc(a1-2)[Gal(a1-3)]Gal(b1-3)GlcNAc(b1-2)Man(a1-3)[Fuc(a1-2)[Gal(a1-3)]Gal(b1-3)GlcNAc(b1-2)Man(a1-6)]Man(b1-4)GlcNAc(b1-4)GlcNAc
Outline: as §1

[29] = target: Fuc(a1-2)[Gal(a1-3)]Gal(b1-4)Glc
Outline: as §1

[30] = target: Fuc(a1-2)[Gal(a1-3)]Gal(b1-4)GlcNAc
Outline: as §1

[31] = target: Fuc(a1-2)[Gal(a1-3)]Gal(b1-4)GlcNAc(b1-2)Man(a1-3)[Fuc(a1-2)[Gal(a1-3)]Gal(b1-4)GlcNAc(b1-2)Man(a1-6)]Man(b1-4)GlcNAc(b1-4)GlcNAc
Outline: as §1

[32] = target: Fuc(a1-2)[Gal(a1-3)]Gal(b1-4)[Fuc(a1-3)]GlcNAc
Outline: as §1

[33] = target: Fuc(a1-2)[Gal(a1-4)]Gal(b1-4)GlcNAc
Outline: as §1

[34] = target: Fuc(a1-2)[GalNAc(a1-3)]Gal
Outline: as §1

[35] = target: Fuc(a1-2)[GalNAc(a1-3)]Gal(b1-3)GlcNAc
Outline: as §1

[36] = target: Fuc(a1-2)[GalNAc(a1-3)]Gal(b1-3)GlcNAc(b1-2)Man(a1-3)[Fuc(a1-2)[GalNAc(a1-3)]Gal(b1-3)GlcNAc(b1-2)Man(a1-6)]Man(b1-4)GlcNAc(b1-4)GlcNAc
Outline: as §1

[37] = target: Fuc(a1-2)[GalNAc(a1-3)]Gal(b1-4)Glc
Outline: as §1

[38] = target: Fuc(a1-2)[GalNAc(a1-3)]Gal(b1-4)GlcNAc
Outline: as §1

[39] = target: Fuc(a1-2)[GalNAc(a1-3)]Gal(b1-4)GlcNAc(b1-2)Man(a1-3)[GalNAc(a1-3)[Fuc(a1-2)]Gal(b1-4)GlcNAc(b1-2)Man(a1-6)]Man(b1-4)GlcNAc(b1-4)GlcNAc
Outline: as §1

[40] = target: Fuc(a1-2)[GalNAc(a1-3)]Gal(b1-4)GlcNAc(b1-3)Gal(b1-4)GlcNAc
Outline: as §1

[41] = target: Fuc(a1-2)[GalNAc(a1-3)]Gal(b1-4)GlcNAc(b1-3)Gal(b1-4)GlcNAc(b1-3)Gal(b1-4)GlcNAc
Outline: as §1

[42] = target: Fuc(a1-2)[GalNAc(a1-3)]Gal(b1-4)[Fuc(a1-3)]GlcNAc
Outline: as §1

[43] = target: Fuc(a1-2)[GalNAc(a1-4)]Gal(b1-4)GlcNAc
Outline: as §1

[44] = target: Fuc(a1-2)[GalNAc(b1-3)]Gal
Outline: as §1

[45] = target: Fuc(a1-3)GlcNAc
Outline: as §1

B1: MRCL (Homo sapiens), NP_872425.1 (protein)
chain: ATKVHFPFHTCDLRIDGDCFMVSSEADTYYRARMKCQRKGGVLAQIKSQKVQDILAFYLGRLETTNEVTDSDFETRNFWIGLTYKTAKDSFRWATGEHQAFTSFAFGQPDNHGLVWLSAAMGFGNCVELQASAAFNWNNQRCKTRNRYICQFAQEHISRWGPGS
- glycan array binding signal (z-score) [1]: 0.097
- glycan array binding signal (z-score) [2]: 0.001
- glycan array binding signal (z-score) [3]: -0.341
- glycan array binding signal (z-score) [4]: -0.424
- glycan array binding signal (z-score) [5]: 0.114
- glycan array binding signal (z-score) [6]: -0.522
- glycan array binding signal (z-score) [7]: 3.42
- glycan array binding signal (z-score) [8]: -0.114
- glycan array binding signal (z-score) [9]: 0.194
- glycan array binding signal (z-score) [10]: -0.199
- glycan array binding signal (z-score) [11]: 0.034
- glycan array binding signal (z-score) [12]: 0.42
- glycan array binding signal (z-score) [13]: 1.22
- glycan array binding signal (z-score) [14]: 0.289
- glycan array binding signal (z-score) [15]: -0.629
- glycan array binding signal (z-score) [16]: -0.656
- glycan array binding signal (z-score) [17]: -0.461
- glycan array binding signal (z-score) [18]: -0.654
- glycan array binding signal (z-score) [19]: -0.195
- glycan array binding signal (z-score) [20]: 0.44
- glycan array binding signal (z-score) [21]: -0.853
- glycan array binding signal (z-score) [22]: -0.093
- glycan array binding signal (z-score) [23]: 0.193
- glycan array binding signal (z-score) [24]: 0.108
- glycan array binding signal (z-score) [25]: 1.38
- glycan array binding signal (z-score) [26]: -0.24
- glycan array binding signal (z-score) [27]: -0.549
- glycan array binding signal (z-score) [28]: 0.26
- glycan array binding signal (z-score) [29]: 2.33
- glycan array binding signal (z-score) [30]: -0.464
- glycan array binding signal (z-score) [31]: -0.272
- glycan array binding signal (z-score) [32]: -0.521
- glycan array binding signal (z-score) [33]: -0.456
- glycan array binding signal (z-score) [34]: -0.622
- glycan array binding signal (z-score) [35]: -0.508
- glycan array binding signal (z-score) [36]: -0.466
- glycan array binding signal (z-score) [37]: -0.524
- glycan array binding signal (z-score) [38]: -0.481
- glycan array binding signal (z-score) [39]: 1.09
- glycan array binding signal (z-score) [40]: -0.633
- glycan array binding signal (z-score) [41]: 1.51
- glycan array binding signal (z-score) [42]: -0.044
- glycan array binding signal (z-score) [43]: 3.1
- glycan array binding signal (z-score) [44]: -0.682
- glycan array binding signal (z-score) [45]: -0.58
